This is an account of results in the RNAGym collection of RNA variant scans (doi:10.7554/elife.90254).

The labels stand for the following.
B1: LINE1-mini (parent)
chain: GGCAGAGCUCAACACAGCGUGGCAAAGUGGCUGUGGCUAGACUGCC

Read counts are not given, so values of variants with three or more changes are uncertain.

In this data set the parent is B1. Description: self-cleavage, relative activity (ratio to wild type); higher = more cleavage; in vitro, sequencing; the parent is a self-cleaving ribozyme.
Turning to C18G G19U G30C, the self-cleavage was found to be 0.99.
For C18U G19A G29C C42U, the self-cleavage was found to be 0.11.
In the case of G19A G21U G33C, the self-cleavage turned out to be 0.06.
Take C18U G33A G40A: the self-cleavage is 0.01.
Turning to G19A A24U G36A, the self-cleavage stood at 0.15.
As to C18G G22A U38A C42U C46G, the self-cleavage is 0.04.
Turning to C18G U20A G27U G35A, the self-cleavage worked out at 0.03.
As to C18U A24G C31U C46A, the self-cleavage stood at 0.05.
Consider C18G G22A G29C C31G C42A, for which the self-cleavage stood at 0.01.
As for C18U G30A C37A, the self-cleavage worked out at 0.1.
G19A C42U C45U: the self-cleavage was determined as 0.53.
In the case of C18G G35U C37G, the self-cleavage came out at 0.06.
In the case of C18G A25U G29U it was 0.93; in that of C18G G21A U28C C37A, 0.05.
Turning to C18G G22C C23A A25G G44U C46U, the self-cleavage stood at 0.04.
As to C18G C23U A25C A39U, the self-cleavage was 0.12.
Regarding G19A G30A U34G A39C, the self-cleavage stood at 0.02.
Turning to C18U C23U A25U G30C, the self-cleavage was 1.27.
Consider G19A A39C C45A, for which the self-cleavage turned out to be 0.06.
As for G19A C23A U28A G29U, the self-cleavage came out at 0.3.
As to C18G G29U U43A C45A, the self-cleavage was determined as 0.02.
In the case of G19A G33A C46U it was 0.04; in that of G19A G22A G33U, 0.11; in that of C18U G27U G33C U34C G40A, 0.04.
For the variant G19A C23U A39U, the self-cleavage was 0.8.
Consider C18U A26C G27U U34A, for which the self-cleavage worked out at 0.03.
Take C18U G19U U32C: the self-cleavage stood at 0.29.
For the variant C18U U34G U38A G40A, the self-cleavage amounted to 0.03.
For the variant C18U G33U G36C, the self-cleavage came to 0.02.
In the case of C18U U32C G40A, the self-cleavage stood at 0.04.
As for C18G G19A U43G, the self-cleavage is 0.03.
Regarding C18U U20A A26U, the self-cleavage was determined as 1.11.
For the variant C18U G19C G30A, the self-cleavage was found to be 1.05.
On to C18G G21U A26G G35U, for which the self-cleavage stood at 0.04.
In the case of C18G G35A G40A, the self-cleavage was 0.01.
As for C18G G19A G35A, the self-cleavage was found to be 0.06.
G19A G27A G29U G35A: the self-cleavage came out at 0.25.
With C18G G35U U43G, the self-cleavage amounted to 0.01.
On to C18U G22U A39U C46A, for which the self-cleavage was 0.19.
For C18U G19A C23A C37G, the self-cleavage worked out at 0.
Regarding G19A G29A G36A, the self-cleavage was 0.52.
G19A G29U C31A: the self-cleavage was 0.8.
In the case of G19A G22U C23A A39C it was 0.11; in that of C18G C23U G30A, 0.62; in that of C18G C23U G30C, 0.64.
Regarding G19A G29A G35U, the self-cleavage was found to be 0.05.
On to C18G G19A C37G C42A, for which the self-cleavage was 0.05.
For the variant G19A G22A G27U, the self-cleavage worked out at 0.08.
Turning to C18A U32C C37G, the self-cleavage came out at 0.01.
Take C18U A26C G33U C42A: the self-cleavage is 0.03.
Then C18U C31G G36C C45U, with 0.02; and G19A C31U A39C, with 0.08.
As to C18G G19C C31A G36U, the self-cleavage amounted to 0.03.
For C18G U28A U32G A39U, the self-cleavage was found to be 0.05.
With G19A C23U G27C G29U G30C, the self-cleavage amounted to 0.99.
For the variant C18G G33C C37A, the self-cleavage turned out to be 0.07.
Regarding G19A G33A C37G G44A C46G, the self-cleavage came to 0.04.
Regarding C18A U34C C46A, the self-cleavage was determined as 0.04.
In the case of C18U G19C G21A U34G U38C A41U G44U, the self-cleavage is 0.03.
In the case of C18G A39G G40C C45U, the self-cleavage was found to be 0.02.
In the case of G19A A25C G33U it was 0.09.
In the case of C18G A24U U38G C42G, the self-cleavage was found to be 0.05.
For the variant G19A C23U U28A, the self-cleavage is 0.73.
Turning to C18U C45G C46A, the self-cleavage came out at 0.33.
For C18G G36A C46G, the self-cleavage is 0.02.
Take G19A G27A U28A C42G: the self-cleavage is 0.
For the variant C18G C37U C42A, the self-cleavage came out at 0.02.
Consider C18G A25G U32G G36A, for which the self-cleavage was found to be 0.01.
Consider C18U G30U G35A, for which the self-cleavage worked out at 0.05.
In the case of C18G U20A C23G G29U U43G G44U, the self-cleavage stood at 0.03.
As to C18A U32G G44U C46A, the self-cleavage turned out to be 0.02.
Then C18G G44C C46U, with 0.01; and C18U C31U C45A, with 0.02; and G19A G21U G27U U38G, with 0.02.
As for C18U C23U G29A C46A, the self-cleavage is 0.83.
As for G19A G22A C31G, the self-cleavage amounted to 0.44.
Then C18G G22U C31A, with 0.1; and C18U U20C G33U, with 0.02; and G19A G22U U28C G30A, with 1.08.
Take C18U G22U G44U: the self-cleavage stood at 0.11.
Regarding G19A G27U U28C U38C C42A, the self-cleavage came to 0.06.
Then C18U U20A C23G G30U, with 0.58.
Then C18U A25G A41C, with 0.01.
Turning to C18U U28G G29U U32G C46U, the self-cleavage was 0.08.
In the case of C18U G22C A24U G35A it was 0.11; in that of C18G A26C C31G U34G, 0.01; in that of C18U A24U G29A G30A G33U G35U G44U, 0.19.
On to G19A A24U C42U, for which the self-cleavage is 0.26.
On to G19A G22A A41C, for which the self-cleavage turned out to be 0.01.
In the case of C18U A26C C37U A41U, the self-cleavage is 0.04.
As to C18G G27A G36U G40A, the self-cleavage was 0.06.
For the variant G19A G29U G35C, the self-cleavage came to 0.15.
As to C18U U20G U28C G29U C31U G33U, the self-cleavage is 0.02.
In the case of C18G U32G C45G it was 0.03; in that of C18U G19C G35A A41U C46U, 0.06; in that of C18U C37G A41U U43A, 0.02.
With G19A G30C C31A U32C, the self-cleavage came out at 1.85.
In the case of C18U G22A C42U it was 0.2; in that of C18U U38A G44C, 0.08.
For the variant C18U G22C C45U, the self-cleavage worked out at 1.4.
Regarding G19A G22U C31A G33A, the self-cleavage is 0.07.
As for C18G G21U A41U C42G, the self-cleavage was 0.03.
C18U G27C C45A: the self-cleavage came to 0.19.
Take C18U A25U G27A: the self-cleavage was found to be 0.9.
Consider G19A A25C G29U C37G G40C, for which the self-cleavage stood at 0.08.
C18G G35A U38C: the self-cleavage turned out to be 0.08.
Then C18G U20A A26G, with 0.11; and C18U G19A A26G, with 2.66; and C18U G21C A26U, with 1.33.
In the case of C18G G29U U32C A39U it was 0.05; in that of C18U U32A G36A A41C C45A, 0.01.
In the case of G19A G21A A26G G27A G29A it was 2.94; in that of C18U C23G A26U G27U C37A, 0.02; in that of C18U A26U G40C, 0.04.
Consider C18U U20C G22U G36C C45A, for which the self-cleavage was 0.19.
Turning to C18A U43G G44A C45A, the self-cleavage is 0.05.
In the case of C18G G22C G35U A39G, the self-cleavage came out at 0.07.
Then C18U G29U G33C G40A, with 0.01; and C18G G27U G30C, with 1.4; and G19A C23U A41U, with 0.82.
C18G A24G G40U: the self-cleavage amounted to 0.
Then C18G G22C G30A, with 0.87.
For the variant G19A A26G U28A C37U, the self-cleavage came to 0.03.
Then G19A C37A G40U, with 0.09; and C18U U34G C37A, with 0.04.
As to C18G G21U U32G, the self-cleavage came to 0.17.
Regarding C18U U28C G29U C37A, the self-cleavage came to 0.09.
Take C18U G19C G35A: the self-cleavage stood at 0.04.
In the case of C18U A26G G36U it was 0.06.
Regarding C18U A26C G36A C37U G40U, the self-cleavage was found to be 0.21.
Turning to G19A A25C G27A A39U C45U, the self-cleavage was found to be 1.01.
With C18G G19U C37G, the self-cleavage is 0.01.
As to G19A G30A G40U, the self-cleavage stood at 0.17.
Then C18U G40U C46A, with 0.01; and C18U U20C C42A, with 0.04.
For C18U C31U U32A U34C, the self-cleavage worked out at 0.05.
Take C18U G21U U28G G30U C46A: the self-cleavage is 0.94.
On to C18U U43C G44A, for which the self-cleavage came to 0.03.
In the case of C18U C23U G33A G36U, the self-cleavage was 0.06.
C18U G21U G35U A41U: the self-cleavage was 0.04.
Take C18U A24U U43A: the self-cleavage is 0.04.
In the case of C18U U20A A26U A39C, the self-cleavage came to 0.11.
In the case of C18G G27C G29A it was 0.03.
C18G G27A A39U: the self-cleavage came out at 0.09.
C18G G30U U34A: the self-cleavage came out at 0.03.
As for G19A G21A G27A C45U, the self-cleavage is 1.46.
Then G19A A25C A26G U32A G44A, with 0.09; and C18U U32A A39U C42A, with 0.03.
C18G C31U U32A: the self-cleavage stood at 0.02.
In the case of G19A G33A G35U it was 0.06; in that of C18G G33U G40U, 0.07.
For C18U U20C G36U C46G, the self-cleavage came out at 0.07.
With C18U G22U A26U, the self-cleavage stood at 0.27.
As to C18G C23G U38C U43A, the self-cleavage was found to be 0.02.
For the variant C18G U20A G22U G27U G30A C31U, the self-cleavage came to 0.11.
Regarding C18U G22U A25U, the self-cleavage came to 0.21.
For C18U C23A C31U C37A, the self-cleavage was determined as 0.02.
In the case of G19A A24U A25U G36C it was 0.01; in that of C18U G22U G40A, 0.35.
Then C18G G44U C45G, with 0.62; and C18A U34C G36C, with 0.1; and C18G G21U C42A C45G, with 0.02.
Consider C18U G44U C46G, for which the self-cleavage stood at 0.03.
Then C18G U34C A39U, with 0.03.
For C18G G22U C45U, the self-cleavage is 0.21.
As to C18U G30U G33U G40U, the self-cleavage is 0.01.
For C18G U28C C42A, the self-cleavage was 0.12.
